Reference: the supplement of paper PMC11181314
This is one part of the list. Single values of this set are uncertain.

Test system: U2OS
Experiment: Cell Painting induction (percent of morphological features significantly changed vs DMSO); higher = stronger morphological change
Details: 10 µM; 20 h; run: confirmation repeat
Experimental: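 Cell Painting assay in U2OS cells: compounds at 10 µM for 20 h, six dyes, 579 robust CellProfiler features as Z-scores vs DMSO median (MAD). Induction is the % of significantly changed features (active if ≥5%); relative cell count is in % of DMSO. The primary run holds DCM compounds preselected for induction ≥10%; the confirmation repeat defines active compounds (370 of 549). Replicate agreement is low, attributed to precipitation.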
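Further: stains mark DNA, RNA and nucleoli, ER, actin, Golgi, plasma membrane and mitochondria, read by high-content imaging, with DMSO controls at matching solvent concentration.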

Structure (SMILES) | Cell Painting induction
COc1cc(Nc2nc3c(S(=O)(=O)c4ccc(C)cc4)nnn3c3ccccc23)cc(OC)c1OC | active: 19.2%
CN(CCNC(=O)C1CCCN(c2ncnc3c2nc2n3CCCCC2)C1)Cc1ccccc1 (configuration not stated) | active: 16.4%
Clc1cccc(-n2nc(-c3ccccc3)c3cnc4cc5c(cc4c32)OCCO5)c1 | inactive: 0.2%
COc1cccc2cc(C(C)N(CCCN3CCOCC3)C(=S)Nc3ccccc3C)oc12 (configuration not stated) | inactive: 3.8%
CC1CCC(NC(=O)C2CCC(CNS(=O)(=O)c3ccc4c(c3)C(C)(C)C(=O)N4C)CC2)CC1 (configuration not stated) | active: 48.7%
CCc1ccc(NC(=O)c2nnn(-c3ccc(OC)c(Cl)c3)c2C)cc1 | active: 6.7%
COc1cc(OC)c(NC(=O)c2nnn(-c3ccccc3)c2C)cc1Cl | inactive: 0%
CCOC(=O)c1c(C)n(C)c2ccc(OCC(O)CNC(CC)CO)cc12 (configuration not stated) | active: 5.9%
CCN(CC)CCNC(=O)COc1ccc(Cl)cc1Cl | active: 17.8%
O=C(Nc1ccc(NC(=S)NC(=O)c2ccco2)cc1)c1ccccc1 | active: 16.2%
CCn1cc(C(=O)NCCN(CC(C)C)CC(C)C)c(=O)c2cc(S(=O)(=O)N3CCOCC3)ccc21 | inactive: 1.4%
N/C(=N\C(=O)/C=C/c1ccccc1)Nc1nc2ccccc2o1 | active: 16.8%
COc1ccc(NC(=O)CCc2nc(-c3ccc(C)cc3)no2)cc1Cl | active: 28.8%
CCOc1ccc(-n2c(SCC(=O)Nc3ccccc3CC)nc3nnc(C)c-3c2N)cc1 | inactive: 0%
CO/C(O)=C1\C(C)=Nc2nc3ccccc3n2C1c1ccccc1F (configuration not stated) | active: 44%
CCn1cc(C(=O)NCCCN2CC(C)CC(C)C2)c(=O)c2cc(S(=O)(=O)N(C)C)ccc21 (configuration not stated) | inactive: 0.9%
CCOc1ccc(CCNC(=O)c2ccc3c(=O)n4c(nc3c2)CCCCC4)cc1 | active: 36.8%
CCOC(=O)c1c(-c2ccccc2)csc1NC(=O)c1cc2ccccc2oc1=O | inactive: 0%
O=C(NCCCN(Cc1ccco1)C1CCCC1)c1noc2c1COc1ccccc1-2 | active: 24.2%

Structure (SMILES) | Cell Painting induction
Cc1c(Cl)cccc1-n1ncc(C(=O)Nc2ccccc2F)c1C1CCNCC1 | active: 27.1%
COc1ccccc1NC(=O)c1cc2c(CO)cnc(C)c2o/c1=N\c1cc(OC)c(OC)c(OC)c1 | inactive: 2.9%
Cc1cccc2sc(N(CCCN(C)C)C(=O)c3cc4ccccc4oc3=O)nc12 | active: 49.2%
CC(C)Cn1cc(C(=O)NCCCOC(C)C)c2c3ccccc3n(C)c2c1=O | inactive: 0.2%
Cc1cc(C(=O)Nc2c(C)nn(Cc3c(Cl)cccc3Cl)c2C)no1 | active: 19.9%
CCN1CCCc2cc(CN(CCN3CCOCC3)C(=S)Nc3cccc(Cl)c3)ccc21 | active: 24%
CCN(Cc1ccccc1)S(=O)(=O)c1ccc(S(=O)(=O)N2CCN(CCC#N)CC2)cc1 | inactive: 0%
COc1ccc(N(CC(=O)N/N=C(\C)c2cccs2)S(=O)(=O)c2ccccc2)cc1Cl | inactive: 0%
COc1ccc(Nc2c3c(c(C#N)c4nc5ccccc5n24)CCC3)cc1 | inactive: 0%
CC1CC(C)CN(CCCNC(=O)c2ccc(CNS(=O)(=O)c3ccc(F)cc3)cc2)C1 (configuration not stated) | active: 17.3%
COc1cc(NC(=O)c2cc(-c3ccc(C)cc3)on2)cc(OC)c1OC | inactive: 3.6%
COc1cc(CNCCCN2CCOCC2)cc(Cl)c1OCC(=O)NC(C)(C)C | active: 25.4%
CCCCCCC(O)(c1ccc(OC)cc1)C(CN1CCOCC1)c1ccccc1 (configuration not stated) | active: 48.2%
CCCCN(C)CCN1C(=O)[C@@H]2C(C(=O)Nc3ccc(OC)cc3)[C@@H]3C=C[C@]2(O3)C1C(=O)NC1CCCCC1 (some centres not stated) | active: 46.3%
CC(=O)c1ccc(S(=O)(=O)N2CCC(Oc3ccc(-n4cnnn4)cc3)CC2)cc1 | inactive: 0%
CCCCN(C)CCn1c(=S)[nH]c2cc(OCC)c(OCC)cc2c1=O | active: 15%
CCC1Oc2ccccc2N(CC(=O)NCCCN2CCN(c3ccc(OC)cc3)CC2)C1=O (configuration not stated) | inactive: 4.8%
COc1ccc(-n2ncc(C(=O)Nc3cc(Cl)ccc3C)c2C2CCNCC2)cc1 | active: 27.3%
